Results on 51 compounds are retold here after PMC12040169 (PLOS Biology, 2025).

This is one part of the list.

The test system of this assay is T1, C. trachomatis L2/434/Bu expressing GFP (CTL2-GFP).
T1 construct: L2/434/Bu GFP intracellular growth in HeLa cells
Details: species or system HeLa; C. trachomatis total inclusion area by high-content imaging, normalised to DMSO. The note with it: total inclusion area; 28.5 h, 10 µM; inhibitor. Put shortly:
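Bulk GFP and resorufin signals were read first. Wells were then fixed, stained with Hoechst and imaged to detect GFP inclusions and host nuclei. MICs followed the previously described calculation.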
Turning to `CC(C)CN1CC2(CCN(C(=O)OCc3ccccc3)CC2)c2ccccc21` [CBK022626C], the “% of control remaining” value is given as 83.7781.

As for `COc1ccc(OC)c(NS(=O)(=O)c2ccccc2)c1` [CBK099989], the “% of control remaining” value came out at 92.7491.

Consider `O=C(C1=C(O)C(=O)N(CCN2CCOCC2)C1c1ccccn1)c1cc2ccccc2o1` (stereo not drawn) [CBK269576], for which the “% of control remaining” value was found to be 104.19.

For the compound `CC(C)COC(=O)n1ccc(C(=O)N2CCCCC2)n1` [CBK058828], the “% of control remaining” value amounted to 55.0714.

Take `FC(F)(F)c1ccc(Sc2cccc3ccccc23)nc1` [CBK089553]: the “% of control remaining” value stood at 112.974.

Take `COc1c[nH]c(C(=O)NC(CCn2ccnc2)c2ccccc2)cc1=O` (stereo not drawn) [CBK306743]: the “% of control remaining” value amounted to 81.8966.

With `O=C(CCS(=O)(=O)c1ccccc1)Nc1cc2ccccc2c(N2CCNCC2)n1` [CBK028419T], the “% of control remaining” value stood at 78.0632.

In the case of `CC(C)C(=O)N1N=C2CCCCC2C1(O)C(F)(F)F` (stereo not drawn) [CBK028091], the “% of control remaining” value was determined as 92.312.

As to `Cc1noc(C)c1C(=O)NC(Cc1ccsc1)c1cccnc1` (stereo not drawn) [CBK285100], the “% of control remaining” value stood at 102.594.

Consider `CN(C)CCN1CCN(c2nc(-c3cccc4ccccc34)cnc2N)CC1` [CBK063479], for which the “% of control remaining” value is 92.8389.

Turning to `CC1(C)CC(NS(=O)(=O)c2ccc(Br)cc2)CC(C)(C)N1` [CBK266805], the “% of control remaining” value is 114.683.

On to `O=C(c1ccccc1)N1CCN(c2ccc(-n3cccn3)nn2)CC1` [CBK287662], for which the “% of control remaining” value amounted to 93.2772.

As for `CS(=O)(=O)Nc1nn(-c2ccc(NC(=O)c3ccno3)cc2)c2ccccc12` [CBK048591], the “% of control remaining” value worked out at 63.8719.

`CC(Oc1cccc(Cl)c1)C(=O)N/N=C/c1cccc(Oc2ccccc2)c1` (stereo not drawn) [CBK262113]: the “% of control remaining” value amounted to 100.916.

For `Cc1[nH]c(=O)[nH]c(=O)c1CC(=O)N1Cc2cc(Cl)ccc2OC2(CCOCC2)C1` [CBK286341], the “% of control remaining” value was 106.459.

On to `COc1cccc(C(=O)N2CCC(NC(=O)c3ccccc3C(F)(F)F)CC2)c1` [CBK155024], for which the “% of control remaining” value is 94.4089.

Consider `Fc1ccc(-c2ccc(CNCCCN3CCOCC3)o2)cc1` [CBK278199C], for which the “% of control remaining” value was found to be 100.935.

For the compound `OCCN1CCN(c2nccc(C(F)(F)F)n2)CC1` [CBK028754], the “% of control remaining” value amounted to 102.003.

Consider `CCCn1c(SCC(=O)N(C)Cc2ccc(OCC)cc2)n[nH]c1=O` [CBK295132], for which the “% of control remaining” value came to 108.542.

As for `Cc1cnc(CNS(=O)(=O)c2ccc(C(C)C)cc2)cn1` [CBK044615], the “% of control remaining” value worked out at 55.4524.

For the compound `N#Cc1ccc(SCCOC(=O)c2cccs2)c([N+](=O)[O-])c1` [CBK066853], the “% of control remaining” value was found to be 118.139.

For the compound `CS(=O)(=O)c1ccc(-c2c[nH]c([C@@H]3COCCN3C3CCCCC3)n2)cc1` [CBK289299], the “% of control remaining” value turned out to be 94.7681.

As for `Cc1[nH]c2c(C(=O)NCCCC3CCOC3)cccc2c1C` (stereo not drawn) [CBK282551], the “% of control remaining” value is on record as 103.876.

In the case of `CS(=O)(=O)c1ccc(-c2ccc3c(c2)COC(C2CCN(C(=O)OCc4ccccc4)CC2)O3)cc1` (stereo not drawn) [CBK144643], the “% of control remaining” value came to 48.8053.

For the compound `O=C(O)C1C2CCC(O2)C1C(=O)NCc1ccco1` (stereo not drawn) [CBK263675], the “% of control remaining” value was 106.674.

With `C#Cc1cn([C@H]2C[C@@H](O)[C@@H](CO)O2)c(=O)[nH]c1=O` [CBK201207], the “% of control remaining” value amounted to 95.6546.

As for `CC1CC1C(=O)NCC(=O)N1CCN(S(=O)(=O)c2ccccc2[N+](=O)[O-])CC1` (stereo not drawn) [CBK296747], the “% of control remaining” value was found to be 113.551.

Turning to `O=C(NC(C(=O)N/N=C/c1ccc(Cl)cc1Cl)c1n[nH]c(=O)c2ccccc12)c1ccccc1` (stereo not drawn) [CBK261118], the “% of control remaining” value is recorded as 105.865.

In the case of `Cc1ccc2nc(N3CCCC(O)C3)c(CN3CCSCC3)cc2c1` (stereo not drawn) [CBK307000], the “% of control remaining” value came out at 104.159.

Consider `COCCNc1nc(-c2ccccc2)ccc1C(=O)N(C)CCN(C)C` [CBK105913], for which the “% of control remaining” value worked out at 83.6252.

Take `OCCn1ncc2c(SC3CCCCC3)ncnc21` [CBK269358]: the “% of control remaining” value is listed as 86.4567.

For `Clc1ccc(COc2nccnc2OCc2cccnc2)cc1Cl` [CBK161597], the “% of control remaining” value amounted to 73.8028.

Consider `CS(=O)(=O)c1ccc(-n2cc(-c3cccnc3)nn2)cc1` [CBK113061], for which the “% of control remaining” value worked out at 110.233.

For `CCOC(=O)C1CCCN(Cc2ccc(OC)cc2)C1` (stereo not drawn) [CBK304413], the “% of control remaining” value turned out to be 66.5701.

`CCOc1ccccc1NC(=O)c1cc(CC(C)C)oc1C` [CBK057904]: the “% of control remaining” value came out at 75.114.

Take `COC(=O)COc1ccc(C(NC(=O)c2ccccc2)C(Cl)(Cl)Cl)cc1` (stereo not drawn) [CBK265437]: the “% of control remaining” value was 80.6286.

In the case of `O=C1CNC(=O)C2(C/C=C/C[C@H]3COCC[C@H]3N1)CCN(Cc1ccc(F)cn1)CC2` [CBK292160], the “% of control remaining” value came to 112.093.

Regarding `CCn1c2cc(C)oc2c2cn[nH]c(=O)c21` [CBK284230], the “% of control remaining” value worked out at 47.2838.

Regarding `CCOc1ccc(-n2c(SC/C=C/c3ccccc3)nnc2-c2cccnc2)cc1` [CBK266222], the “% of control remaining” value is on record as 94.9951.

Take `CC(O)(CC(=O)O)CC(=O)OCCc1ccc2c(c1)CCC2` (stereo not drawn) [CBK017766]: the “% of control remaining” value was found to be 57.2937.

For the compound `OCCN(CCO)CC1CC=CCC1` (stereo not drawn) [CBK261907], the “% of control remaining” value was determined as 92.9305.

As to `CCOC(=O)c1cnc(NS(=O)(=O)c2cccc(Cl)c2C)nc1C` [CBK004707], the “% of control remaining” value was 98.5068.

On to `OCCNc1nccnc1-c1ccoc1` [CBK036580], for which the “% of control remaining” value was 78.0867.

Regarding `CCCc1[nH]nc(O)c1CCc1ccc(OC)cc1OC` [CBK081123], the “% of control remaining” value is reported as 78.8973.

As for `COc1cccc(-c2cncc(C3CCN(C(=O)CCOc4ccccc4)CC3)n2)c1` [CBK286153], the “% of control remaining” value stood at 92.778.

In the case of `CCOc1cc2c(cc1CN1CCN(Cc3noc(C)n3)CC1)CCC2` [CBK307138], the “% of control remaining” value is on record as 76.7034.

With `COc1cccc(CNCC(c2ccnn2C)C(C)C)n1` (stereo not drawn) [CBK304858], the “% of control remaining” value is listed as 50.4916.

As for `Oc1cc(-c2ccccc2)nc(NNc2ccccc2)n1` [CBK261716], the “% of control remaining” value is 69.3687.

As to `CCCS(=O)(=O)c1ccc2[nH]c(NC(=O)c3cnc(-c4ccccc4)c(-c4ccncc4)c3)nc2c1` [CBK037426], the “% of control remaining” value worked out at 74.9376.

Take `O=C(NCC(O)c1ccc([N+](=O)[O-])cc1)c1cccc(S(=O)(=O)N2CCCC2)c1` (stereo not drawn) [CBK268847]: the “% of control remaining” value came out at 94.7713.

`O=C(Cn1cc(/C=C/c2[nH]c(=O)[nH]c(=O)c2[N+](=O)[O-])c2ccccc21)Nc1ccc2c(c1)OCO2` [CBK267036]: the “% of control remaining” value was found to be 122.367.
